Measurements taken from publication PMC3052287 (Psychopharmacology, 2010).

Experiments:
[1] = biological target: h5-HT7 receptor homodimers (Homo sapiens, UniProt P34969); assay: Bioluminescence resonance energy transfer; assay type: cell-based; settings: 1 μM drug; cells expressing Rluc and YFP forms of h5-HT7; data not shown
h5-HT7 receptor [2] = biological target: T1, h5-HT7 receptor (Homo sapiens, UniProt P34969)
h5-HT7 receptor [3] = biological target: T1, h5-HT7 receptor; settings: cited from earlier work
h5-HT7 receptor [4] = biological target: T1, h5-HT7 receptor; settings: cited from earlier work; remark: listed apart in the source
h5-HT7 receptor [5] = biological target: T1, h5-HT7 receptor; assay: Homogenate radioligand binding
h5-HT7 receptor [6] = biological target: T1, h5-HT7 receptor; remark: listed apart in the source
h5-HT7 receptor [7] = biological target: T1, h5-HT7 receptor; remark: listed apart in the source
[8] = intact cells exposed to 1 μM drug 30 min, washed, homogenized, 2 nM [3H]5-HT
[9] = intact cells, ref Smith et al. 2006, Knight et al. 2009
[10] = 10 nM risperidone pre-treatment, wash, 1 μM drug 90 min, 10 μM 5-HT
[11] = 1 μM mesulergine after inactivator and wash, 10 μM 5-HT

T1 sequence (P34969 whole entry): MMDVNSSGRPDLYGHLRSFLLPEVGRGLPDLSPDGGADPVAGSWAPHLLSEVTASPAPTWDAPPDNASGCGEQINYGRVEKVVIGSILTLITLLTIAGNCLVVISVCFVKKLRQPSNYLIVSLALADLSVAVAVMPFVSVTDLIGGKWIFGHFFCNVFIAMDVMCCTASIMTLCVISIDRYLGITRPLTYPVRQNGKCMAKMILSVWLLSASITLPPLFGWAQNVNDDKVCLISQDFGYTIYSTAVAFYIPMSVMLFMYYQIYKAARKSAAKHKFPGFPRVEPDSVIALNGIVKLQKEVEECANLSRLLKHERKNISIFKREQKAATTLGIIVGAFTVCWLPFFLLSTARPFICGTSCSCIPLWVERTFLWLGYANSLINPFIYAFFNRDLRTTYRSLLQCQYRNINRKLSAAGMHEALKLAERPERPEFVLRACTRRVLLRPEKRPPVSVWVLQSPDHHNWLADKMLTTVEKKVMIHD
Sequence of h5-HT7 receptor homodimers (P34969 whole entry): as above
Sequence of h5-HT7 receptor homodimers (P34969 whole entry): as above

NCCc1c[nH]c2ccc(O)cc12 [5-HT]
change in BRET signal [1]: did not produce a significant change

Cc1nc2n(c(=O)c1CCN1CCC(c3noc4cc(F)ccc34)CC1)CCCC2O (centres unmarked) [9-OH-risperidone]
wash-resistant inhibition of [3H]5-HT binding (h5-HT7 receptor [2]; [8]): 50% | inactivation of the h5-HT7 receptor (loss of 5-HT-stimulated cAMP accumulation) (h5-HT7 receptor [3]; [9]): inactivate the h5-HT7 receptor | share of h5-HT7 binding sites bound in a wash-resistant manner (h5-HT7 receptor [4]; intact cells, ref Knight et al. 2009): 50%

CN(C)CCSc1nc2ccccc2cc1-c1ccccc1 [ICI169369]
Ki (h5-HT7 receptor [5]; read-out: Membrane homogenate Ki, Fig. 5 legend, membrane homogenates): 393 ± 54 nM | reactivation of risperidone-inactivated h5-HT7 receptors (h5-HT7 receptor [6]): reactivation of the receptor

CN1C[C@@H](NS(=O)(=O)N(C)C)C[C@@H]2c3cccc4c3c(cn4C)C[C@H]21 [[^3H]mesulergine]
Bmax (h5-HT7 receptor [7]; estimated from homologous competition curve data): 2,700 fmol/mg protein | absolute level of binding (h5-HT7 receptor [7]; intact cells, 1 nM radioligand): 120 fmol/mg

CC(C)C[C@H]1C(=O)N2CCC[C@H]2[C@]2(O)O[C@](NC(=O)[C@@H]3C=C4c5cccc6[nH]c(Br)c(c56)C[C@H]4N(C)C3)(C(C)C)C(=O)N12 [bromocriptine]
wash-resistant inhibition of [3H]5-HT binding (h5-HT7 receptor [2]): all of the binding | inactivation of the h5-HT7 receptor (loss of 5-HT-stimulated cAMP accumulation) (h5-HT7 receptor [3]): inactivate the h5-HT7 receptor | share of h5-HT7 binding sites bound in a wash-resistant manner (h5-HT7 receptor [4]): all the h5-HT7 receptors

CN1CCC(=C2c3ccccc3C=Cc3ccccc32)CC1 [cyproheptadine]
reactivation of risperidone-inactivated h5-HT7 receptors (h5-HT7 receptor [6]; [10]): reactivation of the receptor

CN1C[C@@H](NS(=O)(=O)N(C)C)C[C@@H]2c3cccc4c3c(cn4C)C[C@H]21 [mesulergine]
wash-resistant inhibition of [3H]5-HT binding (h5-HT7 receptor [2]; [8]): did not affect binding | Ki (h5-HT7 receptor [5]): 2.8 nM | rightward shift of competition curve (h5-HT7 receptor [5]; [3H]5-HT raised from 1 to 10 nM, membrane homogenates): fourfold | reactivation of risperidone-inactivated h5-HT7 receptors (h5-HT7 receptor [6]; [10]): reactivation of the receptor | reactivation of 9-OH-risperidone-inactivated receptors (h5-HT7 receptor [6]; [11]): able to reactivate | reactivation of bromocriptine-inactivated receptors (h5-HT7 receptor [6]; [11]): not able to reactivate | reactivation of methiothepin-inactivated receptors (h5-HT7 receptor [6]; [11]): not able to reactivate | reactivation of risperidone-inactivated receptors (h5-HT7 receptor [6]; [11]): able to reactivate | effect on wash-resistant [3H]risperidone binding (h5-HT7 receptor [7]; 1 μM drug added to intact cells): dissociation of [^3H]risperidone from the receptor

CN1C[C@H](CNC(=O)OCc2ccccc2)C[C@@H]2c3cccc4c3c(cn4C)C[C@H]21 [metergoline]
inactivation of the h5-HT7 receptor (loss of 5-HT-stimulated cAMP accumulation) (h5-HT7 receptor [3]; [9]): inactivate the h5-HT7 receptor

Cc1nc2n(c(=O)c1CCN1CCC(c3noc4cc(F)ccc34)CC1)CCCC2 [risperidone]
wash-resistant inhibition of [3H]5-HT binding (h5-HT7 receptor [2]): 50% | inactivation of the h5-HT7 receptor (loss of 5-HT-stimulated cAMP accumulation) (h5-HT7 receptor [3]): inactivate the h5-HT7 receptor | share of h5-HT7 binding sites bound in a wash-resistant manner (h5-HT7 receptor [4]): 50% | change in BRET signal [1]: did not produce a significant change

Where two headings read alike, the source gives them in different places.
